We go through 22 compounds from the supplement of paper PMC6089552.

The whole screen tested about 3,200 compounds, of which about 300 (9.4%) showed activity. The entries are a selection whose mix differs from that of the whole data set.

The assay relates to A673/TR/shEF. In words: cell viability (LOESS-normalised, relative to median of negative controls) (log2 ratio); higher = more viable cells (less compound effect), active = hit call of the paper (over 3 MAD below the median). To be noted: treatment time: 72 h. In a few lines: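 A673/TR/shEF Ewing sarcoma cells were plated at 1,500 per well in 384-well plates and cultured with or without doxycycline, added 24 h before compounds, to induce EWS-FLI1 shRNA knockdown. Library compounds at two or more concentrations, alongside DMSO controls, were applied for three days. Cell viability was measured by CellTiter-Glo luminescence on an Envision reader. Readings were LOESS-corrected per plate, divided by the median of negative controls and log2-transformed, and hits were wells lying at least three median absolute deviations from the median of all screened wells.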

Setting [1] is: 0.25 µM, library screen: screen1, EWS-FLI1 expression: high (no doxycycline).
[2] abbreviates: 0.25 µM, library screen: screen1, EWS-FLI1 expression: low (doxycycline-induced shRNA knockdown).
Where [3] appears, read: 2.5 µM, library screen: screen1, EWS-FLI1 expression: high (no doxycycline).
[4] abbreviates: 2.5 µM, library screen: screen1, EWS-FLI1 expression: low (doxycycline-induced shRNA knockdown).
Setting [5] is: 0.103 µM, library screen: screen3, EWS-FLI1 expression: high (no doxycycline).
Setting [6] is: 0.103 µM, library screen: screen3, EWS-FLI1 expression: low (doxycycline-induced shRNA knockdown).
[7] abbreviates: 0.308 µM, library screen: screen3, EWS-FLI1 expression: high (no doxycycline).
Setting [8] is: 0.308 µM, library screen: screen3, EWS-FLI1 expression: low (doxycycline-induced shRNA knockdown).
Where [9] appears, read: 0.926 µM, library screen: screen3, EWS-FLI1 expression: high (no doxycycline).
Setting [10] is: 0.926 µM, library screen: screen3, EWS-FLI1 expression: low (doxycycline-induced shRNA knockdown).
Where [11] appears, read: 2.8 µM, library screen: screen3, EWS-FLI1 expression: high (no doxycycline).
Where [12] appears, read: 2.8 µM, library screen: screen3, EWS-FLI1 expression: low (doxycycline-induced shRNA knockdown).
[13] abbreviates: 8.3 µM, library screen: screen3, EWS-FLI1 expression: high (no doxycycline).
[14] abbreviates: 8.3 µM, library screen: screen3, EWS-FLI1 expression: low (doxycycline-induced shRNA knockdown).
The mark [15] stands for this setting: 25 µM, library screen: screen3, EWS-FLI1 expression: high (no doxycycline).
Where [16] appears, read: 25 µM, library screen: screen3, EWS-FLI1 expression: low (doxycycline-induced shRNA knockdown).
[17] abbreviates: 0.025 µM, library screen: screen2, EWS-FLI1 expression: high (no doxycycline).
Setting [18] is: 0.025 µM, library screen: screen2, EWS-FLI1 expression: low (doxycycline-induced shRNA knockdown).
Setting [19] is: 0.25 µM, library screen: screen2, EWS-FLI1 expression: high (no doxycycline).
The mark [20] stands for this setting: 0.25 µM, library screen: screen2, EWS-FLI1 expression: low (doxycycline-induced shRNA knockdown).
Where [21] appears, read: 2.5 µM, library screen: screen2, EWS-FLI1 expression: high (no doxycycline).
[22] abbreviates: 2.5 µM, library screen: screen2, EWS-FLI1 expression: low (doxycycline-induced shRNA knockdown).
Where [23] appears, read: 25 µM, library screen: screen2, EWS-FLI1 expression: high (no doxycycline).
The mark [24] stands for this setting: 25 µM, library screen: screen2, EWS-FLI1 expression: low (doxycycline-induced shRNA knockdown).

Consider `COC(=O)c1c(OC)cc2c(c1C)Oc1c(Cl)c(OC(C)=O)c(Cl)c(C)c1C(=O)O2`, for which the “cell viability (log2)” value is, setting by setting: under setting [1], inactive: 0.0846; under setting [2], inactive: 0.126; under setting [3], inactive: 0.0897; under setting [4], inactive: 0.152.

`CC(=O)OC1(C)CCC23CC1C(C)(C)[C@@H]2CC[C@H]3C` (some centres undefined): the “cell viability (log2)” value by setting is: under setting [1], inactive: 0.0148; under setting [2], inactive: 0.0289; under setting [3], inactive: 0.15; under setting [4], inactive: 0.0585.

Turning to `CC(=O)N[C@H]1[C@H]([C@H](O)[C@H](O)CO)O[C@](O)(C(=O)O)C[C@@H]1O`, the “cell viability (log2)” value under setting [1] is inactive: 0.0617, the “cell viability (log2)” value under setting [2] is inactive: -0.0233, the “cell viability (log2)” value under setting [3] is inactive: 0.0203 and the “cell viability (log2)” value under setting [4] was inactive: -0.134.

With `CCOC(=O)c1oc2c(OC)c(O)cc(O)c2c(=O)c1-c1cc(OC)c(OC)c(OC)c1`, the “cell viability (log2)” value by setting is: under setting [1], inactive: 0.036; under setting [2], inactive: 0.0305; under setting [3], inactive: -0.00359; under setting [4], inactive: -0.108.

Turning to `Cn1cc(-c2ccc3nnc(C(F)(F)c4ccc5ncccc5c4)n3n2)cn1`, the “cell viability (log2)” value is, setting by setting: under setting [5], inactive: -0.0312; under setting [6], inactive: 0.0443; under setting [7], inactive: 0.0814; under setting [8], inactive: 0.00679; under setting [9], inactive: -0.00123; under setting [10], inactive: 0.0472. For the same compound, the “cell viability (log2)” value is inactive: 0.0171 under setting [11]; inactive: -0.0221 under setting [12]; inactive: 0.0639 under setting [13]; inactive: 0.086 under setting [14]; inactive: 0.0673 under setting [15]; inactive: 0.0926 under setting [16].

As to `c1ccc2[nH]c(-c3cscn3)nc2c1`, the “cell viability (log2)” value was inactive: 0.221 under setting [17]; inactive: 0.00965 under setting [18]; inactive: 0.11 under setting [1]; inactive: 0.0218 under setting [2]; inactive: 0.197 under setting [19]; inactive: 0.0407 under setting [20]. The “cell viability (log2)” value was inactive: 0.192 under setting [3]; inactive: 0.119 under setting [4]; inactive: 0.136 under setting [21]; inactive: 0.0331 under setting [22]; inactive: 0.0874 under setting [23]; inactive: 0.0288 under setting [24].

For the compound `CN1[C@@H](CC(=O)c2ccccc2)CCC[C@H]1C[C@H](O)c1ccccc1`, the “cell viability (log2)” value under setting [1] is inactive: 0.0499; the “cell viability (log2)” value under setting [2] is inactive: 0.0843; the “cell viability (log2)” value under setting [19] is inactive: 0.0574; the “cell viability (log2)” value under setting [20] was inactive: 0.0857; the “cell viability (log2)” value under setting [3] was inactive: 0.0536; the “cell viability (log2)” value under setting [4] was inactive: 0.0322. Also, the “cell viability (log2)” value by setting is: under setting [21], inactive: 0.132; under setting [22], inactive: 0.0677.

On to `CSc1nc(N)c2ncn([C@@H]3O[C@H](COP(=O)(O)OP(=O)(O)OP(=O)(O)O)[C@H](O)C3O)c2n1` (some centres undefined), for which the “cell viability (log2)” value under setting [19] is inactive: 0.257, the “cell viability (log2)” value under setting [20] was inactive: 0.0636, the “cell viability (log2)” value under setting [21] is inactive: 0.0652 and the “cell viability (log2)” value under setting [22] was inactive: 0.053.

Consider `CC(=O)C(C)=O`, for which the “cell viability (log2)” value by setting is: under setting [19], inactive: 0.0591; under setting [20], inactive: 0.121; under setting [21], inactive: 0.128; under setting [22], inactive: 0.16.

`CCCCCCCCc1ccc(CCC(N)(CO)CO)cc1`: the “cell viability (log2)” value is inactive: 0.0814 under setting [5]; inactive: 0.0528 under setting [6]; inactive: 0.0332 under setting [7]; inactive: -0.0148 under setting [8]; inactive: 0.0328 under setting [9]; inactive: 0.0341 under setting [10]. For the same compound, the “cell viability (log2)” value under setting [11] was inactive: 0.00825; the “cell viability (log2)” value under setting [12] was inactive: 0.0473; the “cell viability (log2)” value under setting [13] was inactive: -0.0193; the “cell viability (log2)” value under setting [14] is inactive: 0.0563; the “cell viability (log2)” value under setting [15] is active: -0.341; the “cell viability (log2)” value under setting [16] is active: -0.161.

Consider `COC(=O)c1c(C)c2c(c(C)c1OC(C)=O)OC(=O)c1c(C)c(Cl)c(O)c(Cl)c1O2`, for which the “cell viability (log2)” value under setting [1] was inactive: 0.0664, the “cell viability (log2)” value under setting [2] is inactive: 0.0141, the “cell viability (log2)” value under setting [3] is inactive: 0.0918 and the “cell viability (log2)” value under setting [4] is inactive: 0.03.

For `CC(C)c1c(O)ccc2c1CCC1[C@@](C)(C(=O)O)CCC[C@]21C` (some centres undefined), the “cell viability (log2)” value reads like this: under setting [1], inactive: 0.0397; under setting [2], inactive: 0.152; under setting [3], inactive: 0.0988; under setting [4], inactive: 0.234.

Regarding `CC(=O)OCC1=C(C(=O)O)N2C(=O)[C@@H](NC(=O)CSc3ccncc3)[C@H]2SC1`, the “cell viability (log2)” value is inactive: 0.0377 under setting [1]; inactive: 0.00515 under setting [2]; inactive: 0.158 under setting [19]; inactive: 0.0685 under setting [20]; inactive: 0.129 under setting [3]; inactive: 0.115 under setting [4]. Besides, the “cell viability (log2)” value runs as follows: under setting [21], inactive: 0.0516; under setting [22], inactive: 0.0791.

With `Cc1cc(O)c2c(c1)Cc1cccc(O)c1C2=O`, the “cell viability (log2)” value by setting is: under setting [1], inactive: 0.119; under setting [2], inactive: 0.00964; under setting [3], inactive: 0.16; under setting [4], inactive: 0.111.

Regarding `COC(=O)c1c(-c2cc(OC)c(OC)c(OC)c2)c2ccnc(OCc3ncccn3)c2c(=O)n1Cc1ccnc(C)c1`, the “cell viability (log2)” value is, setting by setting: under setting [19], inactive: 0.081; under setting [20], inactive: 0.0559; under setting [21], inactive: 0.249; under setting [22], inactive: 0.00697.

As to `C[C@]12CC[C@@H]3c4ccc(O)cc4CC[C@H]3[C@@H]1CCC2=O`, the “cell viability (log2)” value by setting is: under setting [5], inactive: 0.082; under setting [6], inactive: 0.0198; under setting [1], inactive: 0.266; under setting [2], inactive: 0.22; under setting [19], inactive: 0.101; under setting [20], inactive: 0.114. Also, the “cell viability (log2)” value is inactive: -0.0119 under setting [7]; inactive: 0.0733 under setting [8]; inactive: 0.0965 under setting [9]; inactive: 0.0845 under setting [10]; 0.314 under setting [3]; inactive: 0.181 under setting [4]. For the same compound, the “cell viability (log2)” value runs as follows: under setting [21], inactive: 0.0352; under setting [22], inactive: 0.0654; under setting [11], inactive: 0.0464; under setting [12], inactive: 0.0309; under setting [13], inactive: 0.0237; under setting [14], inactive: 0.0831. For the same compound, the “cell viability (log2)” value under setting [15] was inactive: 0.168 and the “cell viability (log2)” value under setting [16] is inactive: -0.00855.

In the case of `CC(=O)c1c(O)c(C)c(O)c2c1OC1=CC(=O)C(C(C)=O)C(=O)C12C` (centres undefined), the “cell viability (log2)” value under setting [17] is inactive: 0.112; the “cell viability (log2)” value under setting [18] was inactive: 0.00783; the “cell viability (log2)” value under setting [1] is inactive: 0.0672; the “cell viability (log2)” value under setting [2] was inactive: 0.0498; the “cell viability (log2)” value under setting [19] is inactive: 0.101; the “cell viability (log2)” value under setting [20] is inactive: 0.0398. Besides, the “cell viability (log2)” value by setting is: under setting [3], inactive: 0.209; under setting [4], inactive: 0.0665; under setting [21], inactive: 0.0699; under setting [22], inactive: 0.0728; under setting [23], inactive: 0.183; under setting [24], inactive: 0.0624.

As to `CC(=O)OCC(=O)[C@@]1(O)CC[C@H]2[C@@H]3C[C@H](C)C4=CC(=O)C=C[C@]4(C)[C@H]3[C@@H](O)C[C@@]21C`, the “cell viability (log2)” value is inactive: 0.0844 under setting [1], inactive: -0.0725 under setting [2], inactive: 0.0783 under setting [3] and inactive: -0.0354 under setting [4].

In the case of `O=C(Nc1c(-c2ccccc2)nc2ccc(Cl)cn12)c1ccc(F)cc1`, the “cell viability (log2)” value reads like this: under setting [1], inactive: 0.0947; under setting [2], inactive: 0.0794; under setting [3], inactive: 0.184; under setting [4], inactive: -0.0685.

For `CC(=O)OC1CCC2(C)C3=C(CC[C@H]2C1(C)C)[C@@]1(C)CC[C@@H]([C@@H](C)CCC=C(C)C)[C@]1(C)CC3` (some centres undefined), the “cell viability (log2)” value is, setting by setting: under setting [1], inactive: 0.058; under setting [2], inactive: -0.000522; under setting [3], inactive: 0.0338; under setting [4], inactive: -0.0772.

Turning to `Clc1cccc(CN2CCN(Cc3ccco3)CC2)c1`, the “cell viability (log2)” value reads like this: under setting [1], inactive: 0.0456; under setting [2], inactive: 0.0122; under setting [3], inactive: 0.0707; under setting [4], inactive: -0.00788.

Take `CC1CN(S(=O)(=O)c2cccc3cnccc23)CCN1` (centres undefined): the “cell viability (log2)” value is inactive: 0.246 under setting [19], inactive: 0.094 under setting [20], inactive: 0.214 under setting [21] and inactive: 0.111 under setting [22].
